Values joined by “and” are separate entries in the source; they are usually repeats but may differ in a detail not shown here. Equal entries are not always repeated. About 12,000 (3.5%) of roughly 340,000 compounds were called active. Inconclusive means that the source gave no clear call. Such entries were picked first, then a sample of the others. Calls come from the whole dose curve; as a rule, active = well fitted inhibition curve with a large enough effect; inconclusive = small, poorly fitted or top-dose-only effect, or another doubt; inactive = no such curve, though single readings can be large or run the other way. Potencies of inconclusive entries are doubtful fits and often do not repeat.
Experiment: qHTS Assay for Inhibitors of Hepatitis C Virus (HCV)
Details: Huh7.5.1 HCVcc-Cre (HCVcc is cell-culture hepatitis C virus) infection, luciferase reporter, 44 h; series mostly up to 41.8 µM
Outline: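 A cell-based infection assay in which seeded cells (1,000 per well) receive test compound after 4 h, are inoculated with HCVcc-Cre at approximately 0.5 moi, and are incubated 44 h before luminescence detection.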
Potency is the fitted concentration of half-maximal effect; tags give direction and shape of the fitted curve.

Row | Compound | Potency
1 | O=C1C2C3C=CC(C2C(=O)N1c1cccc(O)c1)C1C2C(=O)N(c4cccc(O)c4)C(=O)C2C31 (stereo not given) | inactive
2 | O=C1NC(=O)C(=Cc2cccs2)C(=O)N1 | inactive
3 | CCc1ccc(NC(=O)CSc2ccc(-c3sc(C)nc3C)nn2)cc1 | active: 11.2 µM
4 | Cc1c(N=C2N=C(NC(=O)c3cccs3)c3ccccc32)c(=O)n(-c2ccccc2)n1C | active: 10 µM
5 | COc1ccc(-n2nc(C(=O)NCC(=O)N3CC(C)CC(C)C3)c3ccccc3c2=O)c(OC)c1 (stereo not given) | inactive
6 | CCN1C(=O)[C@@H]2[C@@H](c3ccc(-c4ccc5c(c4)OCO5)cc3)N3CCCC[C@@]3(C(=O)OC)[C@@H]2C1=O | inconclusive: 14.1 µM [inhibitor, single point]
7 | CC(C)c1ccccc1N=C1SCCN1C1CCS(=O)(=O)C1 (stereo not given) | inactive
8 | COc1ccc([N+](=O)[O-])cc1NC(=O)C(C)OC(=O)c1cccnc1 (stereo not given) | inconclusive: 25.1 µM [inhibitor, single point]
9 | COc1cccc(OCC(O)CNC(C)c2ccccc2)c1 (stereo not given) | inconclusive: 22.4 µM [inhibitor, single point]
10 | CC(C)CCOc1ccc(C(=O)N2CCN(c3ncccn3)CC2)cc1 | inactive
11 | O=S(=O)(Nc1ccc(O)c(CN2CCCCC2)c1)c1ccccc1 | inactive
12 | O=C(NC1CC1)c1ccc2c(c1)C1C3CCC(C3)C1C(c1ccccc1)N2 (stereo not given) | inactive
13 | CCCOC(=O)c1ccc(Oc2cn[nH]c2-c2ccc(O)cc2O)cc1 | active: 8.91 µM
14 | CCN(CC)CCn1c2c(c(SCC(=O)Nc3ccc(C(C)C)cc3)nc1=O)CCCC2 | active: 14.1 µM
15 | COc1ccc(C(=O)C[n+]2ccc(C)cc2)cc1 | inactive
16 | CCOc1ccc(NC(=O)c2ccc(NC(=O)c3ccc(CN4CCOCC4)cc3)cc2)cc1 | inconclusive: 1.26 µM [inhibitor, full curve, poor fit]
17 | N=c1n(CCN2CCCCC2)c2ccccc2n1CC(=O)c1cccc([N+](=O)[O-])c1 | inconclusive: 14.1 µM [inhibitor, partial curve]
18 | COc1ccc(S(=O)(=O)N(CC(=O)Nc2ccc(S(=O)(=O)N3CCOCC3)cc2)Cc2ccc(F)cc2)cc1 | inconclusive: 22.4 µM [inhibitor, single point]
19 | COc1cc2sc(-c3ccccc3OC)c(-c3ccc(OCCN4CCOCC4)cc3)c2cc1OC | inconclusive: 10 µM [inhibitor, partial curve]
20 | Cc1cc(C)nc(NNS(=O)(=O)c2ccc(Cl)cc2)n1 | inactive
21 | COc1cccc(N2CCN(C(=O)c3ccc(CS(=O)c4ccccc4Cl)o3)CC2)c1 (stereo not given) | inconclusive: 31.6 µM [inhibitor, single point]
22 | COc1ccccc1NC(=O)C1=C(C)NC(SCC(=O)c2ccccc2)=C(C#N)C1c1ccco1 (stereo not given) | active: 7.94 µM
23 | COc1cc2c(cc1OC)CN(C(=O)/C=C/c1cccs1)CC2 | inconclusive: 3.16 µM [inhibitor, single point]
24 | O=C(c1ccc(Cl)cc1)c1cnc(-c2ccccc2)s1 | inconclusive: 0.501 µM [inhibitor, partial curve, poor fit]

Row | Compound | Potency
25 | CN/C=C1\C(=O)C(C)(C)Oc2ccc3ccc(=O)oc3c21 | inconclusive: 10 µM [inhibitor, partial curve]
26 | O=C(NCCNc1ccc([N+](=O)[O-])cc1)c1ccccc1Br | inconclusive: 10 µM [inhibitor, partial curve]
27 | CCOc1cc(N2CCOCC2)c(OCC)cc1NC(=O)c1c(-c2ccccc2)noc1C | inconclusive: 22.4 µM [inhibitor, single point]
28 | CCCCCCC(c1c(C)n(C)n(-c2ccccc2)c1=O)c1c(C)n(C)n(-c2ccccc2)c1=O | inconclusive: 11.2 µM [inhibitor, single point] and inconclusive: 31.6 µM [inhibitor, single point]
29 | CCOC(=O)C1CCCN(C(=O)c2cccc(N3C(=O)c4ccccc4C3=O)c2)C1 (stereo not given) | inactive
30 | COc1ccccc1C(=O)Nc1cc(Cl)ccc1O | inconclusive: 10 µM [inhibitor, single point]
31 | COc1ccc(F)cc1S(=O)(=O)Nc1ccc2c(c1)OCO2 | inconclusive: 31.6 µM [inhibitor, single point]
32 | O=C(Oc1ccc(Cl)cc1)N1CCCCC1 | inactive
33 | Cc1ccc(NC(=O)CN2C(=O)CN=C(c3ccccc3)c3cc(Cl)ccc32)cc1 | inconclusive: 12.6 µM [inhibitor, single point]
34 | O=C(c1ccc(Br)cc1)c1cc([N+](=O)[O-])ccc1N1CCOCC1 | inconclusive: 7.08 µM [inhibitor, partial curve]
35 | CCOC(=O)c1c(NC(=O)c2ccn(CC)n2)sc2c1CCC2 | inconclusive: 12.6 µM [inhibitor, partial curve]
36 | Cc1cc(SCC#N)n2nc(C)c(-c3ccc(Cl)cc3)c2n1 | inconclusive: 0.562 µM [inhibitor, full curve, poor fit]
37 | Cc1cc(Nc2ccccc2)nn1C(=O)c1ccccc1 | inconclusive: 10 µM [inhibitor, single point]
38 | COc1ccc(-c2cc(C(F)(F)F)nc(SCC(N)=O)n2)cc1 | inconclusive: 31.6 µM [inhibitor, single point]
39 | CCCCNc1c(-c2ccc(SC(C)CC)c(OC)c2)nc2ccc(Cl)cn12 (stereo not given) | inactive
40 | CN1C2CCC1/C(=C/c1ccccn1)C(=O)/C2=C\c1ccccn1 | active: 3.55 µM
41 | CCC(C)(C)n1nnnc1CN(Cc1ccc(Cl)cc1)Cc1ccco1 | inconclusive: 22.4 µM [inhibitor, single point]
42 | CCOc1ccc(NC(=O)CN(C)C(=O)c2c(C)nn(-c3ccc(F)cc3)c2Cl)cc1OCC | inconclusive: 31.6 µM [inhibitor, single point]
43 | CC1CCCN(CCCNC(=O)c2nn(C)c3c2CS(=O)(=O)c2ccccc2-3)C1 (stereo not given) | inconclusive: 31.6 µM [inhibitor, single point]
44 | CCOC(=O)C1Nc2ccc(Br)cc2C2C=CCC12 (stereo not given) | inactive
45 | COc1ccccc1CN(C)C(=O)c1cccc(S(=O)(=O)N2CCCC2)c1 | inactive
46 | CC(C)C(=O)N1CCN(c2ccccc2NC(=O)c2ccc([N+](=O)[O-])o2)CC1 | inconclusive: 31.6 µM [inhibitor, single point]
47 | COc1ccc(/C=C/C(=O)c2ccc(OC)cc2OC)c(OC)c1 | inconclusive: 31.6 µM [inhibitor, single point]
48 | CN(C)c1ccc(-c2sc(Nc3ccccc3)n[n+]2-c2ccc(F)cc2)cc1 | inconclusive: 31.6 µM [inhibitor, single point]

Row | Compound | Potency
49 | CC[C@@H]1[C@H]2CCCC(=O)N3CC[C@@H](C[C@@H]1OC(=O)Nc1ccccc1)[C@@H]23 | inconclusive: 3.16 µM [inhibitor, single point]
50 | O=[N+]([O-])c1ccc(O)c(-c2nc(-c3ccccc3)c(-c3cccs3)[nH]2)c1 | active: 6.31 µM
51 | COc1ccc(OCC(=O)N/N=C(/C)Cc2ccccc2)cc1 | inconclusive: 3.98 µM [inhibitor, full curve, poor fit]
52 | CCN1CCCc2cc(CN(CCN3CCOCC3)C(=S)Nc3cc(F)cc(F)c3)ccc21 | inconclusive: 31.6 µM [inhibitor, single point]
53 | CCOC(=O)c1ccc(NC(=O)CCc2nc(-c3cccc(C)c3)no2)cc1 | active: 8.91 µM
54 | O=C(Cn1ncc2c1-c1ccccc1OC2)Nc1cccc(Cl)c1 | inconclusive: 22.4 µM [inhibitor, single point]
55 | O=c1cc(-c2ccsc2)oc2ccc(-c3ccc4cc[nH]c4c3)cc12 | inconclusive: 8.91 µM [inhibitor, partial curve, poor fit]
56 | O=C(/C=C/NCc1cccnc1)c1ccc(-c2ccccc2)cc1 | inactive
57 | CCn1c(COc2ccc3c(c2)CCCC3)nnc1SCC(=O)Nc1ccc(C(=O)OC)cc1 | inactive
58 | CCN(CC)C(=O)COc1ccc(/C(C)=N/Nc2ncc(Cl)cc2Cl)cc1 | active: 11.2 µM
59 | COC(=O)c1cccc(NC(=O)CCN2C(=O)C3CC=CCC3C2=O)c1 (stereo not given) | inactive
60 | COC(=O)C1=C(c2ccc(OC(F)(F)F)cc2)C[C@@H]2CC[C@H]1N2C(=O)N1CCCC1 | active: 12.6 µM
61 | CC(NC(=O)c1ccccc1NC(=O)CN1CCN(c2ccccc2O)CC1)c1ccccc1 (stereo not given) | inconclusive: 5.62 µM [inhibitor, single point]
62 | COc1cc(C(=O)Nc2ccc(S(=O)(=O)N3CCCCC3)cc2)ccc1OCC(=O)N1CCOCC1 | inactive
63 | C=CCNC(=O)C(=O)c1cccn1-c1ccsc1C(=O)OC | inactive
64 | Cc1ccc(S(=O)(=O)NCCC(=O)NCc2ccc(Cl)cc2)cc1C | inconclusive: 11.2 µM [inhibitor, partial curve]
65 | CCOC(=O)N1CCN(C(=O)c2cc3cc(C)ccc3[nH]2)CC1 | inactive
66 | CC1(C)CC(=O)C=C(c2ccc(F)cc2OCc2ccccc2)C1 | active: 20 µM
67 | Cc1ccc2nc(C(Cl)(Cl)Cl)nc(N/N=C/c3ccc([N+](=O)[O-])cc3)c2c1 | inconclusive: 22.4 µM [inhibitor, single point]
68 | CCOC(=O)Cn1c(=NC(=O)c2cccs2)sc2cc(C(=O)OC)ccc21 | inactive
69 | N#Cc1ccc(OCC(O)CN2CCN(C(c3ccccc3)c3ccccc3)CC2)cc1 (stereo not given) | inconclusive: 2.24 µM [inhibitor, partial curve, poor fit]
70 | CCN(CC)CCCNC(=O)c1cc2c(Cl)nc3ccccc3c2s1 | inconclusive: 10 µM [inhibitor, partial curve]
